# Among all 48,000 compounds or so, about 120 (0.25%) were called active. Roughly 4% stayed inconclusive and do not appear here. Calls follow the shape of the dose curve; as a rule, active = well fitted activation curve with a large enough effect; inconclusive = small, poorly fitted or top-dose-only effect, or another doubt; inactive = no such curve, though single readings can be large or run the other way. This is one part of the list.
# Experiment: Primary qHTS for Identification of Small Molecule Activators of Huntingtin-Antisense Promoter Activity; also: nearly all actives have a fitted effect of over 55% in size
# Conditions: HEK293 HTT-AS promoter firefly luciferase reporter, 24 h; series mostly up to 57.5 µM; activity change, positive = activation: at the top concentration
# Procedure, shortened: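 Firefly luciferase signal from promoter-reporter HEK293 cells was scaled between vehicle (0%) and zero RLU (-100%). Compounds were tested at final concentrations of up to 57.5 uM over 24 h at 37 degrees C. PTC124 at 50 uM final served as control inhibitor.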
row,Structure (SMILES),"activity change, positive = activation"
1,CCOC(=O)c1cc(-c2ccccc2)n(-c2cccc(C(=O)Nc3cc(OC)cc(OC)c3)c2)c1C,inactive: -23%
2,O=C(NCc1ccc(F)cc1)c1cc(-c2ccc(Cl)cc2)n[nH]1,inactive: -9.24%
3,CCC(C)NC(=O)CCSc1nc(-c2ccc(OC)cc2)cc(C(F)(F)F)n1 (configuration not stated),inactive: -27.8%
4,CCc1ccc(S(=O)(=O)c2nnn3c2nc(Nc2ccc(F)cc2)c2cc(Cl)ccc23)cc1,inactive: 1.76%
5,O=C(O)c1cccc(Nc2ncnc3scc(-c4ccccc4)c23)c1,inactive: -35.8%
6,Nc1ccc(S(=O)(=O)Nc2ncccn2)cc1,inactive: 4.45%
7,Cc1ccccc1C(=O)Oc1c(Sc2ccccc2)c(C)nn1C(C)(C)C,inactive: 6.46%
8,Cc1ccc(C(=O)Nc2nnc(S(=O)(=O)N3CCc4ccccc43)s2)cc1,inactive: -11.8%
9,CCn1nc(C)c2c(-c3ccccc3)cc(=O)n(C(C)C(=O)Nc3ccc(OC)c(OC)c3)c21 (configuration not stated),inactive: -21.2%
10,COc1ccc(C2C=C(c3ccccc3)Nc3nc(NC(C)=O)nn32)cc1 (configuration not stated),inactive: -19%
11,CCOC(=O)c1ccccc1NC(=O)CN(c1ccccc1)S(=O)(=O)c1ccc(OCC)cc1,inactive: -16.7%
12,CO[C@@]1(NC(=O)C(C(=O)O)c2ccc(O)cc2)C(=O)N2C(C(=O)O)=C(CSc3nnnn3C)CO[C@@H]21 (some centres not stated),inactive: 7.06%
13,Cc1cccc(NC(=O)Nc2cccs2)c1C,inactive: 9.31%
14,CCCCCCc1c(C)c2c(cc(C)c3c(C)coc32)oc1=O,inactive: -2.69%
15,Cc1ccc(C)c(NC(=O)Cn2ncc3c(C)n(Cc4ccc(F)cc4)c(C)c3c2=O)c1,inactive: -10.8%
16,CC1=C(c2ccc(C)c(C)c2)S(=O)(=O)N(Cc2ccc(C(=O)NCc3ccccc3F)cc2)C1=O,inactive: -29.8%
17,N#C/C(=C\c1ccc(O)cc1)C(=O)NCC1CCCO1 (configuration not stated),inactive: 19.1%
18,Cc1cc(C)cc(NC(=O)Cn2nnc(-c3ccccc3F)n2)c1,inactive: -19.3%
19,O=C(CCc1cn(Cc2ccc(F)cc2)c2ccccc12)NC1CCCCC1,inactive: -25.2%
20,COc1ccc(-c2cc(C(F)(F)F)n3nc(C)c(-c4ccccc4)c3n2)cc1OC,inactive: -8.77%
21,CCOC(=O)N1CCc2c(sc3c2c(=O)n(-c2ccc(CC)cc2)c(=O)n3Cc2cccc(Cl)c2)C1,inactive: -5.89%
22,Cc1ccc(C)c(N2CCN(C(=O)C3CCC(CNS(=O)(=O)c4cccs4)CC3)CC2)c1 (configuration not stated),inactive: -39.9%
23,CCC1CN(C(=O)N2CCC(C(=O)NCCc3ccc(OC)c(OC)c3)CC2)c2ccccc2O1 (configuration not stated),inactive: -18.3%
24,Cc1ccc(CNC(=O)CSc2c(C)cnc3c2c(=O)n(C)c(=O)n3C)cc1,inactive: 9.12%

row,Structure (SMILES),"activity change, positive = activation"
1,CCn1cc(C(=O)OCC(=O)Nc2cc(Cl)ccc2C)c(=O)c2ccc(C)nc21,inactive: -4.47%
2,Cc1ccc(NC(=O)C2CCN(S(=O)(=O)c3cccc4nsnc34)CC2)cc1,inactive: -24.6%
3,CCCCOc1ccc(C2C(=O)N(C3CCCCC3)CC(=O)N2C2CCCCC2)cc1 (configuration not stated),inactive: 0.0613%
4,Cc1ccc(NC(=O)CN2C(=O)C(c3ccc(F)cc3)=NC23CCCCCC3)c(C)c1,inactive: -27.4%
5,Cc1ccc(C)c(N2CCN(C(=O)c3cc4cc5ccc(C)cc5nc4o3)CC2)c1,inactive: 0.69%
6,CC1CCN(S(=O)(=O)c2ccc3nc(NCc4ccc(N(C)C)cc4)ccc3c2)CC1,inactive: -39.4%
7,CCc1cccc(NC(=O)Cn2c(=O)n(CCCCCC(=O)NCc3ccc(F)cc3)c(=O)c3sccc32)c1,inactive: -19.9%
8,C=CCc1cc(OC)c(O)c(C(=O)NCCO)c1,inactive
9,O=C(NCCSc1c[nH]c2ccccc12)c1ccc(Cl)cc1,inactive: -8.65%
10,Cc1ccc(N2CC(NC(=O)CCCc3ccccc3)CC2=O)cc1 (configuration not stated),inactive: -11.6%
11,COc1ccc(Cn2c(SCc3ccc(C(=O)NCc4ccc(C)cc4)cc3)nc3cccnc32)cc1,inactive: -35.6%
12,O=C(NCCc1ccccc1)c1ccc2c(c1)N(Cc1ccc(Cl)cc1)C(=O)c1ccccc1S2(=O)=O,inactive: 10.3%
13,CCN(c1ccccc1C)S(=O)(=O)c1nnc(NC(=O)c2ccc(OC)c(OC)c2)s1,inactive: -41.3%
14,Cc1ccc(C2=Nc3ccccc3N=C(c3ccc(F)cc3)C2)c(O)c1,inactive: -8.46%
15,CCc1nc(SC)ncc1C(=O)NCc1cccc(Br)c1,inactive: -14.4%
16,Cc1ccc(Cl)cc1N1CCN(c2nc3ccc(C(=O)c4ccccc4)cc3n3cnnc23)CC1,inactive: -11.7%
17,O=C(Cn1nc(Cc2cccnc2)c2ccccc2c1=O)N1CCN(c2ccccc2F)CC1,inactive: -14.9%
18,COc1ccc(CNC(=O)c2ccc(CN3C(=O)C(C)=C(c4ccc(C)cc4)S3(=O)=O)cc2)cc1,inactive: -24%
19,CCC1CCCCN1CCCNC(=O)c1ccc2c(c1)c(C)c(C)n2CC (configuration not stated),inactive: -17.8%
20,Cc1ccc(C)c(OCC(=O)Nc2sc3c(c2C#N)CCCC3)c1C,"inactive: -6.79% [at 11.5 µM, percent change from vehicle, -100% = no light]"
21,CCOC(=O)c1c(Nc2ccc(C)c(C)c2)nnc(-c2ccccc2)c1-c1ccccc1,inactive: -31.7%
22,CCOc1ccc(NC(=O)NCCN2CCN(c3cc(Cl)ccc3C)CC2)cc1,inactive: -38.2%
23,O=C(NCCc1ccccc1)c1c[nH]c2ccc(S(=O)(=O)Nc3ccc(F)cc3F)cc2c1=O,inactive: -20.8%

# Source: PubChem BioAssay AID1508624 (National Center for Advancing Translational Sciences (NCATS), 2021)
